Experimental data published in the supplement of paper PMC4166925.
± gives the standard deviation of the averaged measurements. In all, about 33,000 sequences were measured (“E-score (dimensionless, -0.5 to 0.5)”: median about -0.046, highest 2% from about 0.36 on). Some of the results follow.

Tested on: T1, SpTbr T-box DNA-binding domain (GST fusion)
T1 sequence: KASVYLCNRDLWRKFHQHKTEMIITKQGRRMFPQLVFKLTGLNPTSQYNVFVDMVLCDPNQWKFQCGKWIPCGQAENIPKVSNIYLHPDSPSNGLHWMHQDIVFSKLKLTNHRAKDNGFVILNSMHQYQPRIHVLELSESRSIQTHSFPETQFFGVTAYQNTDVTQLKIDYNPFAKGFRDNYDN
Assay: PBM E-score of 8-mer (E-score (dimensionless, -0.5 to 0.5)); Tbr is Tbrain of the sea star Patiria miniata (Pm) or the sea urchin Strongylocentrotus purpuratus (Sp); higher = stronger binding preference; most listed sequences are background and not binding sites
Conditions: the construct has about 5 more residues each side
In short: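 Using the Universal PBM Analysis Suite, every ungapped 8-mer received an enrichment E-score averaged over duplicate arrays. Probe intensities came from double-stranded Universal Agilent oligonucleotide arrays incubated with 200 nM GST-fused Tbr T-box DNA-binding domain in PBS (pH 7.5). That protein was expressed in BL21 E. coli at 20 °C and purified by glutathione affinity chromatography.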

Sequence | PBM E-score of 8-mer
GCAAGCAA | 0.00941 ± 0.017
AATTGGAG | -0.0967 ± 0.046
CAAATTTA | -0.0277 ± 0.08
CATGCGAC | 0.0885 ± 0.027
ACTCGTCC | -0.0512 ± 0.025
GAGCACAA | -0.0285 ± 0.11
ACAGATGT | 0.152 ± 0.018
GCGCGCGA | 0.316 ± 0.041
ACTTGGAG | -0.0124 ± 0.013
AGTCGACT | 0.0789 ± 0.039
ACTATGGC | 0.0458 ± 0.028
AGGTTTGC | -0.0997 ± 0.11
GGTGCGCA | 0.215 ± 0.057
AGTGTGGA | 0.373 ± 0.035
ATTCGACG | -0.0229 ± 0.021
ATACCCAC | -0.173 ± 0.07
TATTCAAA | -0.239 ± 0.095
GACGAAAC | 0.0311 ± 0.096
ACATTCCC | -0.15 ± 0.07
GCTTCACC | -0.0574 ± 0.075
CTCATCAG | -0.214 ± 0.068
AGGACCGA | -0.0284 ± 0.059
CAGCGTGA | 0.308 ± 0.03
AGGATTTA | -0.113 ± 0.038
ATGTTTAG | -0.271 ± 0.095

Sequence | PBM E-score of 8-mer
TCTCCCAA | -0.0209 ± 0.0076
AGTGTCAT | 0.405 ± 0.017
AAGATAAA | -0.086 ± 0.046
AAGCGGTA | -0.00951 ± 0.091
ACGCGAGG | 0.207 ± 0.0089
CCTCTATC | -0.104 ± 0.0019
ACTCCTAG | -0.0316 ± 0.012
ATGACACC | 0.4599 ± 0.0031
TCGGAACA | -0.07872 ± 0.00021
GGGGCTGA | -0.244 ± 0.05
GAGCGTCC | -0.263 ± 0.034
AATGGACG | -0.11 ± 0.042
AGAGTCGC | 0.16 ± 0.044
GAAACCGC | 0.0468 ± 0.0075
AATGTTGG | -0.0767 ± 0.091
ATTTAACG | 0.027 ± 0.052
AAGGGCCT | -0.224 ± 0.029
CGTAGCCC | -0.302 ± 0.047
ATCGATTA | -0.15 ± 0.068
GCACTACA | 0.00903 ± 0.0074
ACGTATCT | -0.0757 ± 0.021
CCAATGCC | -0.0845 ± 0.027
CACTGGGA | -0.0452 ± 0.0034
TAGTTCCA | -0.0883 ± 0.023
AATATCTG | -0.21 ± 0.0056

Sequence | PBM E-score of 8-mer
AATGGTGC | 0.198 ± 0.014
AGGGGGGA | -0.419 ± 0.053
ATTCTTCA | 0.0621 ± 0.059
CGGTACAC | -0.0277 ± 0.021
GACTGATA | -0.0508 ± 0.062
AGCTCCGC | -0.254 ± 0.058
ACTAACGC | 0.315 ± 0.015
AACAAGAC | -0.0104 ± 0.018
CTGATGTC | -0.314 ± 0.053
ACTGAACC | 0.00741 ± 0.065
AACGGCGA | -0.0936 ± 0.074
GGGCATCA | 0.00736 ± 0.085
CAAAAAGC | 0.0694 ± 0.065
CGCGCGGC | 0.208 ± 0.04
ATCTTAAC | 0.128 ± 0.0048
ATTGTCCA | 0.0125 ± 0.076
AGGTTTAG | -0.0798 ± 0.046
AACAATTC | -0.0144 ± 0.015
TATCCCGA | -0.0114 ± 0.067
CAGGTCTC | -0.0502 ± 0.00086
CTATTAAA | 0.0284 ± 0.031
CCTGGCAC | 0.362 ± 0.025
AATTAGTG | 0.138 ± 0.039
GAATCCCA | -0.069 ± 0.015
TCGTTCAA | -0.192 ± 0.02

Sequence | PBM E-score of 8-mer
AGTATAAC | 0.154 ± 0.0045
CGGAGTCA | -0.0676 ± 0.013
CAGGGCCG | -0.0381 ± 0.044
ATTGCTGC | -0.0375 ± 0.004
CAACCCTC | -0.253 ± 0.045
GGTTAACA | 0.287 ± 0.012
CCCGGCTA | -0.245 ± 0.0018
ACCTTAGA | 0.0853 ± 0.026
AGAAGCTG | -0.0752 ± 0.061
ACAGATTA | 0.0261 ± 0.0076
AGGATGCC | -0.118 ± 0.043
AGTAGAAC | -0.0771 ± 0.051
ATCATAAC | 0.0243 ± 0.004
GGATCTTA | -0.164 ± 0.024
CTAGAAGC | -0.0364 ± 0.056
CCAGTAGA | -0.0451 ± 0.0039
AGCATTCG | -0.0471 ± 0.016
AGAACATC | -0.1083 ± 0.00059
AATGTGCG | 0.3287 ± 0.0028
ACAAAGGC | -0.0637 ± 0.024
AACGTGCC | 0.0938 ± 0.0014
GGCACTGA | -0.00205 ± 0.045
AGCTTCTG | -0.129 ± 0.045
CTAACTTC | -0.214 ± 0.017
GGACCTCA | -0.171 ± 0.12

Sequence | PBM E-score of 8-mer
GCTTCAAA | 0.0158 ± 0.019
ATGAGGGC | -0.156 ± 0.012
AACCTATG | -0.15 ± 0.014
AGCTTAAA | -0.262 ± 0.042
CGGTAAGC | -0.00241 ± 0.1
CCGCAAGC | -0.0779 ± 0.028
GTCGCGAC | 0.362 ± 0.019
CACGTGCA | 0.221 ± 0.049
CTTAGCAA | 0.0388 ± 0.079
ACTGATTC | -0.253 ± 0.045
GAAATTCA | -0.00178 ± 0.056
CACAGAGC | -0.203 ± 0.064
AGATTTTG | -0.0277 ± 0.0094
GACATAAC | 0.116 ± 0.07
AGTGTAGG | 0.095 ± 0.022
ACTCAAGT | -0.0383 ± 0.033
GGGCTACA | -0.175 ± 0.018
TGCGGACA | 0.103 ± 0.018
AACAACAT | 0.187 ± 0.02
GCGCTTAC | 0.216 ± 0.054
CACCCGCA | 0.334 ± 0.013
CGCTGCTC | -0.0945 ± 0.057
CCTTAATC | 0.0359 ± 0.024
AAATTCGC | 0.221 ± 0.058
CTACAATC | 0.0754 ± 0.02

Sequence | PBM E-score of 8-mer
CCGACAGG | 0.143 ± 0.013
ATCGCGTG | 0.262 ± 0.043
CAATACAG | -0.0537 ± 0.03
CTTTGGAA | -0.173 ± 0.015
CGGATATA | -0.257 ± 0.029
CAACGCCC | 0.229 ± 0.048
TAAACAAA | 0.102 ± 0.025
CGGCTTGA | -0.125 ± 0.012
CCTTACCA | 0.118 ± 0.01
CCAGCACC | 0.216 ± 0.04
ACTTAAAG | 0.0858 ± 0.033
AATGTTAT | 0.0346 ± 0.014
ACCACCCC | 0.194 ± 0.017
CACCTCTA | 0.416 ± 0.0043
CTGTTAAC | 0.312 ± 0.028
AAGGTTAG | -0.0571 ± 0.0011
CGATCAGC | 0.0172 ± 0.057
GGCCAGTA | -0.0711 ± 0.056
AGATCCCG | 0.00833 ± 0.049
CAGGGCCC | -0.291 ± 0.021
CGTATTTA | -0.0462 ± 0.14
AGGCTACA | -0.0329 ± 0.013
ACTCTCAA | 0.0757 ± 0.041
GGCCTCCC | -0.148 ± 0.037
ACTCCCAT | -0.0982 ± 0.07

Sequence | PBM E-score of 8-mer
AGAATTCA | -0.133 ± 0.013
CTTCTGGA | -0.229 ± 0.015
TGCTTCCA | -0.0681 ± 0.08
AGGGCCAG | -0.181 ± 0.0096
ACTGCAGT | 0.154 ± 0.018
ACGAACAT | -0.194 ± 0.015
CGCTGTAA | 0.062 ± 0.039
ACACATTG | 0.368 ± 0.01
ATTGACTG | 0.00428 ± 0.066
TTATACAA | -0.134 ± 0.085
ATTTTCGG | -0.0219 ± 0.042
CCGGGACG | -0.361 ± 0.025
CATCTCCA | 0.062 ± 0.0073
GGGATTAA | -0.136 ± 0.024
ATAAGGAA | -0.225 ± 0.023
GTCATCTA | -0.0343 ± 0.015
GACATGCC | -0.0319 ± 0.0052
AGAAATCT | -0.213 ± 0.018
AGCCCTAC | -0.268 ± 0.0059
GTGTTGCA | 0.252 ± 0.011
CAATAGCG | 0.0305 ± 0.023
CTATTAAC | 0.127 ± 0.062
